Consider 59 compounds from article PMC4336329 (PLoS ONE, 2015).

In all, about 310,000 compounds went through this assay and about 14,000 (4.5%) showed an effect of 50% or more. Effects have a minus sign here. The list shows a part of the results.
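Further: peak tail current of the secondary pulse compared with the same well before compound.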

The target in this assay is human ether-à-go-go-related gene (hERG) potassium channel (human, UniProt Q12809). Description: primary screen, population patch clamp on CHO cells stably expressing hERG.
human ether-à-go-go-related gene (hERG) potassium channel, sequence (Q12809 whole entry, looked up): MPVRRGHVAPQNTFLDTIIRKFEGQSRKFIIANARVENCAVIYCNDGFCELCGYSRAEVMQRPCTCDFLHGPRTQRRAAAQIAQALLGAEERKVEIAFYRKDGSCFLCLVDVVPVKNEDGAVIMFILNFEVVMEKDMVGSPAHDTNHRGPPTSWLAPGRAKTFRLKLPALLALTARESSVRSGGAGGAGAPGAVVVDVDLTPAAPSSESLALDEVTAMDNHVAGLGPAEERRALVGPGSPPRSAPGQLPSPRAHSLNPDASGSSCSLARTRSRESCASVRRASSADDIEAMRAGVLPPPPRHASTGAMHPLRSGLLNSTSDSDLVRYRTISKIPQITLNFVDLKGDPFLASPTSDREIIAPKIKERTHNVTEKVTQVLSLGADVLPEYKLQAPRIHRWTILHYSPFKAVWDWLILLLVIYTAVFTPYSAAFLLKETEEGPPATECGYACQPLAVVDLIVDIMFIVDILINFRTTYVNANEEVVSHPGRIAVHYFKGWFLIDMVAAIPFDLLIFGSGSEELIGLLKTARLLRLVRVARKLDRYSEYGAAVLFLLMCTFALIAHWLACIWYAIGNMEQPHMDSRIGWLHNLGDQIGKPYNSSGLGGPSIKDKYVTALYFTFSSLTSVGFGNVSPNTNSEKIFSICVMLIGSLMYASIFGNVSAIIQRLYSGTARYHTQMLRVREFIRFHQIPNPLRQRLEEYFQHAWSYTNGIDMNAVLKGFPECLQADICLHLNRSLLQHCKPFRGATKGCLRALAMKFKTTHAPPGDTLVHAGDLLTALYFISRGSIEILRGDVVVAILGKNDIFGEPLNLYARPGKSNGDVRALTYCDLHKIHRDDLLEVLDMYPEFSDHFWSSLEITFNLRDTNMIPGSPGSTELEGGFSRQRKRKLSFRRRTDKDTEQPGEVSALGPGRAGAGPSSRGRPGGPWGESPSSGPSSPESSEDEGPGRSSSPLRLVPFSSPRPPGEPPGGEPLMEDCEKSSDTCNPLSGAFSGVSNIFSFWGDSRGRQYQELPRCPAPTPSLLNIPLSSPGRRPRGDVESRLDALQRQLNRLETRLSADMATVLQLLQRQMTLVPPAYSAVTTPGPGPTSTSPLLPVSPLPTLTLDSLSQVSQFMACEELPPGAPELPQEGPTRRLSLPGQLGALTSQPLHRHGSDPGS
With `COc1ccc(C2=NOC(Cn3nc(-c4ccccc4C)cc3C(=O)O)C2)cc1` (centres unmarked), the “hERG current change (%, negative = inhibition) at 10uM” value was 2.44%.
In the case of `Cc1cccn2c(=O)c3cc(C(=O)NC4CCCCC4)c(=N)n(Cc4ccc(F)cc4)c3nc12`, the “hERG current change (%, negative = inhibition) at 10uM” value is reported as -77.1%.
In the case of `COC(=O)CN(c1cccc(C(C)=O)c1)S(C)(=O)=O` it was 9.02%; in that of `O=C(N/N=C/c1cc(Br)cc(Br)c1O)c1cccc(N2CCCC2=O)c1`, 19.4%; in that of `Cn1nc(-c2ccc(OCC(=O)NCC3CCCO3)cc2)c2ccccc2c1=O` (centres unmarked), -1.44%.
In the case of `Cc1ccc(C(=O)Nc2cccc(S(=O)(=O)N3CCOCC3)c2)cc1[N+](=O)[O-]` it was 24.5%.
Under `O=C(Cn1cc2c(n1)CCCCC2)Nc1ccccc1Cl` stands -6%; under `Cc1cc(C(F)(F)F)nn1Cc1n[nH]c(=S)n1Cc1ccccc1`, 7.66%; under `CC(=O)Nc1ccc(NC(=O)N2CCCCC2)cc1`, -0.952%.
For `Cn1c(/C=C/c2cccc(Br)c2)nc2ccccc2c1=O`, the “hERG current change (%, negative = inhibition) at 10uM” value came to 19%.
As to `Cc1ccsc1C(=O)OCC(=O)c1ccc[nH]1`, the “hERG current change (%, negative = inhibition) at 10uM” value was -14.7%.
In the case of `O=C(O)CCC1(CCC(=O)O)c2ccccc2-c2ccccc21` it was 8.34%; in that of `CC1CCN(S(=O)(=O)c2ccc(N/N=C(/C#N)C(N)=O)cc2)CC1`, 4.9%.
Take `Cn1c(CN2CCOCC2)nnc1SCC(=O)Nc1nccs1`: the “hERG current change (%, negative = inhibition) at 10uM” value was determined as 5.47%.
Under `CC(=O)c1ccc(N=C2NC(=O)C(CO)(CO)S2)cc1` stands -2.03%.
Regarding `CCCn1c(=O)c2c(c3ccccc31)OC(C)C(=O)N2` (centres unmarked), the “hERG current change (%, negative = inhibition) at 10uM” value is -6.2%.
For `CCCCC1(C)OC(=O)C(=Cc2c[nH]c3ccccc23)C(=O)O1` (centres unmarked), the “hERG current change (%, negative = inhibition) at 10uM” value amounted to 17.7%.
On to `Cc1nnc2nc(-c3ccccc3)nc(-c3ccccc3)n12`, for which the “hERG current change (%, negative = inhibition) at 10uM” value stood at 19.5%.
As to `Cc1c(NC(=O)c2csc3c2CCCC3)c(=O)n(-c2ccccc2)n1C`, the “hERG current change (%, negative = inhibition) at 10uM” value is 21.1%.
Regarding `COP(=O)(/C=C/c1ccccc1)C(O)c1ccc(F)cc1` (centres unmarked), the “hERG current change (%, negative = inhibition) at 10uM” value is 21.5%.
Regarding `COc1ccc(CC(O)COS(N)(=O)=O)cc1` (centres unmarked), the “hERG current change (%, negative = inhibition) at 10uM” value is recorded as 13.2%.
With `COC(=O)c1sc(C(C)(C)C)cc1CSc1ccccc1`, the “hERG current change (%, negative = inhibition) at 10uM” value was -7.27%.
Under `Clc1ccc(CNCc2cccs2)c(Cl)c1` stands 9.16%.
Regarding `Cc1ccc(/C=C2/SC(=S)N(CCC(=O)N3CCOCC3)C2=O)cc1`, the “hERG current change (%, negative = inhibition) at 10uM” value is reported as 9.61%.
Turning to `CS(=O)(=O)c1ccc(NCCN2CCOCC2)c([N+](=O)[O-])c1`, the “hERG current change (%, negative = inhibition) at 10uM” value came to 16.8%.
Regarding `CCOC(=O)N1CCN(S(=O)(=O)c2ccc(C)cc2)CC1`, the “hERG current change (%, negative = inhibition) at 10uM” value turned out to be 17.9%.
For `CCOC(=O)CCc1c(C)c2ccc3c(c2oc1=O)CN(CCCO)CO3`, the “hERG current change (%, negative = inhibition) at 10uM” value was found to be 21.6%.
Under `CCOC(=O)CCP(=O)(O)C(O)c1ccc(OC)cc1` (centres unmarked) stands 13.1%; under `C=CCn1c(CNC(=O)c2ccccc2C)nnc1SCC(=O)NC1CCCC1`, 6.72%; under `CC(=O)c1sc(NC(=O)C2CCCN2S(=O)(=O)c2ccccc2F)nc1C` (centres unmarked), 15.5%.
On to `CCCOCC(O)CC(CC)C(=O)NNC(=S)Nc1ccccc1` (centres unmarked), for which the “hERG current change (%, negative = inhibition) at 10uM” value worked out at 14.9%.
As to `CC(C)(C)C1COc2ccccc2N1C(=O)c1cccc(Cl)c1` (centres unmarked), the “hERG current change (%, negative = inhibition) at 10uM” value came out at 9.89%.
With `Cc1cc(C)c2nc(NNC(=O)c3cc(=O)c4ccccc4o3)sc2c1`, the “hERG current change (%, negative = inhibition) at 10uM” value was 8.98%.
On to `COc1ccc(OCC(=O)N/N=C/c2ccc(N(C)C)cc2)cc1`, for which the “hERG current change (%, negative = inhibition) at 10uM” value came to 12.2%.
Under `Cn1nc(C(F)(F)F)c(-c2cccc(C(F)(F)F)c2)c1NC(=O)CSCC(=O)O` stands 1.52%; under `CS(=O)(=O)N1CCc2cc(C(=O)Nc3ccccc3)ccc21`, -1.25%.
Turning to `c1cc(-c2sc(-c3ccncc3)c(-c3ccncc3)c2-c2ccncc2)ccn1`, the “hERG current change (%, negative = inhibition) at 10uM” value was -66.6%.
Take `CCOC(=O)C1CCCN(C(=O)c2cn(CC)c(=O)c3cc(OC)c(OC)cc23)C1` (centres unmarked): the “hERG current change (%, negative = inhibition) at 10uM” value amounted to 12.3%.
Under `Cc1cccc(OCCCC(=O)Nc2ccc(S(=O)(=O)Nc3nccs3)cc2)c1C` stands 10.7%.
Under `COc1nc(NC2CCCCC2)nc(NC(C)(C)C)n1` stands -32.9%; under `CCc1nnc(NC(=O)CC(C)c2ccccc2)s1` (centres unmarked), 14.6%; under `Cc1cccc(Cl)c1OCCCCn1ccnc1`, -25.9%.
Regarding `O=C(NCCCn1ccnc1)c1cc(S(=O)(=O)N2CCOCC2)ccc1F`, the “hERG current change (%, negative = inhibition) at 10uM” value turned out to be 26.8%.
In the case of `CCOCCCNC(=O)c1ccc(NC(=O)C2CCCO2)cc1` (centres unmarked) it was 10.9%; in that of `CC(C)(C)[C@H]1CCC(=O)N([C@H](CSc2ccccc2)Cc2ccccc2)CC1`, -3.06%.
For `O=c1[nH]c(Cc2ccccc2)nc2ccccc12`, the “hERG current change (%, negative = inhibition) at 10uM” value is given as 9.09%.
In the case of `Cc1[nH]c2ccc(C(=O)N3CCCC3)cc2c1C` it was -11.2%.
Under `N/C(=N\O)c1ccccc1N1CCCCC1` stands -2.03%; under `C=CCOC(=O)COc1ccc2c(C)c(C)c(=O)oc2c1`, -27.5%.
Take `CCOC(=O)N1CCN(c2c(NCc3cccs3)c(=O)c2=O)CC1`: the “hERG current change (%, negative = inhibition) at 10uM” value is 9.04%.
Turning to `Cn1c(=O)c2c(nc(SCCN3CCOCC3)n2Cc2cccc3ccccc23)n(C)c1=O`, the “hERG current change (%, negative = inhibition) at 10uM” value is recorded as -48.3%.
Consider `O=C(CCCN1C(=O)/C(=C\c2ccco2)SC1=S)Nc1ccc(O)cc1C(=O)O`, for which the “hERG current change (%, negative = inhibition) at 10uM” value is listed as 23.4%.
On to `C=CCN1C=C2C(=O)C(C)(OC(=O)c3cccs3)C(=O)C=C2C=C1CCCC(=O)OC` (centres unmarked), for which the “hERG current change (%, negative = inhibition) at 10uM” value is reported as -10.6%.
Under `COc1ccccc1S(=O)(=O)Cc1ccc(C(=O)NCc2ccc(C)cc2)o1` stands -28.4%; under `Cn1c(SCC(=O)C(C)(C)C)nnc1-c1ccc(F)cc1`, 6.19%; under `CCc1nc(C)ccc1OCC(=O)N1CCc2c([nH]c3ccccc23)C1c1ccccn1` (centres unmarked), -44%.
`COCCN(C(=O)COC(=O)/C=C/c1ccc2ccccc2n1)c1c(N)n(Cc2ccccc2)c(=O)[nH]c1=O`: the “hERG current change (%, negative = inhibition) at 10uM” value is 17.1%.
Regarding `COCC1CCCCN1C(=O)c1cccc(OC2CCN(C(=O)C3CC3)CC2)c1` (centres unmarked), the “hERG current change (%, negative = inhibition) at 10uM” value was -9.38%.
As for `CCCCC1=CC2=CC(=O)C(C)(OC(=O)CC)C(=O)C2=CN1CCc1c[nH]c2ccccc12` (centres unmarked), the “hERG current change (%, negative = inhibition) at 10uM” value is on record as -3.97%.
